Assay results: the supplement of paper PMC12578646, “Prodrug florfenicol amine is activated by intrinsic resistance to target Mycobacterium abscessus” (Nature Microbiology, 2025)

Columns and labels:
Assay in all cases: growth relative to untreated wells; higher = more growth (less inhibition)
[1] = test system: Mycobacterium abscessus ATCC 19977 Eis2 E120fs
Description: (§1)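 384-well two-fold dose series, two replicates; 5 days at 37 °C, then 24 h with resazurin; fluorescence scaled to growth and killed controls.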

[2] = test system: Mycobacterium abscessus ATCC 19977 Eis2 T258R
Description: as §1

[3] = test system: Mycobacterium abscessus ATCC 19977 Eis2 Y227D
Description: as §1

[4] = test system: Mycobacterium abscessus ATCC 19977 Eis2 Y255*
Description: as §1

[5] = test system: Mycobacterium abscessus ATCC 19977 Eis2 Y284*
Description: as §1

[6] = test system: Mycobacterium abscessus ATCC 19977 WhiB7 F24fs
Description: as §1

[7] = test system: Mycobacterium abscessus ATCC 19977 WhiB7 L37P
Description: as §1

[8] = test system: Mycobacterium abscessus ATCC 19977 WhiB7 R76del
Description: as §1

[9] = test system: Mycobacterium abscessus ATCC 19977 WhiB7 T70fs
Description: as §1

[10] = test system: Mycobacterium abscessus ATCC 19977 Δeis2
Description: as §1

[11] = test system: Mycobacterium abscessus ATCC 19977 ΔwhiB7
Description: as §1

[12] = test system: Mycobacterium abscessus ATCC 19977
Description: as §1

CN(C)[C@@H]1C(O)=C(C(N)=O)C(=O)[C@@]2(O)C(O)=C3C(=O)c4c(O)c(NC(=O)CN5CCCC5)cc(F)c4C[C@H]3C[C@@H]12 [eravacycline]
Details	growth [%]
[1], 0.003125 µg/mL	98.4 ± 3.8
[1], 0.00625 µg/mL	106.5 ± 0.65
[1], 0.0125 µg/mL	101 ± 3.7
[1], 0.025 µg/mL	102 ± 1.7
[1], 0.05 µg/mL	87.7 ± 3.2
[1], 0.1 µg/mL	109 ± 7.7
[1], 0.2 µg/mL	125 ± 4.6
[1], 0.4 µg/mL	65.7 ± 25
[1], 0.8 µg/mL	-0.517 ± 0.2
[1], 1.6 µg/mL	-3.8 ± 0.18
[1], 3.2 µg/mL	-6.33 ± 0.11
[1], 6.4 µg/mL	-7.2 ± 0.72
[2], 0.003125 µg/mL	93.5 ± 2.8
[2], 0.00625 µg/mL	100 ± 2.2
[2], 0.0125 µg/mL	88.3 ± 7.5
[2], 0.025 µg/mL	102 ± 4.8
[2], 0.05 µg/mL	85.6 ± 9.9
[2], 0.1 µg/mL	102 ± 2.2
[2], 0.2 µg/mL	112 ± 9.3
[2], 0.4 µg/mL	42.3 ± 11
[2], 0.8 µg/mL	0.888 ± 2
[2], 1.6 µg/mL	-3.06 ± 1.9
[2], 3.2 µg/mL	-6.25 ± 0.17
[2], 6.4 µg/mL	-6.82 ± 0.13
[3], 0.003125 µg/mL	107 ± 11
[3], 0.00625 µg/mL	104 ± 2.2
[3], 0.0125 µg/mL	100 ± 4
[3], 0.025 µg/mL	101 ± 2.8
[3], 0.05 µg/mL	99.8 ± 6.6
[3], 0.1 µg/mL	104 ± 2.4
[3], 0.2 µg/mL	123 ± 3.8
[3], 0.4 µg/mL	57.2 ± 11
[3], 0.8 µg/mL	1.65 ± 2.1
[3], 1.6 µg/mL	-2.51 ± 0.42
[3], 3.2 µg/mL	-4.7 ± 0.23
[3], 6.4 µg/mL	-5.88 ± 0.24
[4], 0.003125 µg/mL	93.5 ± 3.3
[4], 0.00625 µg/mL	97.2 ± 10
[4], 0.0125 µg/mL	99.8 ± 5.5
[4], 0.025 µg/mL	100 ± 9.7
[4], 0.05 µg/mL	92.9 ± 3.1
[4], 0.1 µg/mL	96 ± 2.5
[4], 0.2 µg/mL	120 ± 12
[4], 0.4 µg/mL	63.8 ± 0.65
[4], 0.8 µg/mL	3.48 ± 7.7
[4], 1.6 µg/mL	-5.71 ± 2.7
[4], 3.2 µg/mL	-6.63 ± 2
[4], 6.4 µg/mL	-8.43 ± 1.9
[5], 0.003125 µg/mL	98.5 ± 8.2
[5], 0.00625 µg/mL	102 ± 1.6
[5], 0.0125 µg/mL	97 ± 2.6
[5], 0.025 µg/mL	100 ± 4.9
[5], 0.05 µg/mL	91.1 ± 13
[5], 0.1 µg/mL	98 ± 5.9
[5], 0.2 µg/mL	116.2 ± 0.91
[5], 0.4 µg/mL	84.7 ± 5.5
[5], 0.8 µg/mL	-0.944 ± 0.61
[5], 1.6 µg/mL	-4.42 ± 0.15
[5], 3.2 µg/mL	-5.86 ± 0.093
[5], 6.4 µg/mL	-6.95 ± 0.55
[6], 0.003125 µg/mL	101 ± 2.6
[6], 0.00625 µg/mL	103 ± 1.9
[6], 0.0125 µg/mL	96 ± 1.8
[6], 0.025 µg/mL	101 ± 2.5
[6], 0.05 µg/mL	92.1 ± 7.6
[6], 0.1 µg/mL	98.8 ± 19
[6], 0.2 µg/mL	116.3 ± 1.1
[6], 0.4 µg/mL	1.84 ± 3.9
[6], 0.8 µg/mL	10.3 ± 20
[6], 1.6 µg/mL	-4.87 ± 0.41
[6], 3.2 µg/mL	-5.41 ± 0.72
[6], 6.4 µg/mL	-6.37 ± 0.27
[7], 0.003125 µg/mL	94.9 ± 7.6
[7], 0.00625 µg/mL	108 ± 6.1
[7], 0.0125 µg/mL	95.2 ± 6.8
[7], 0.025 µg/mL	102 ± 4
[7], 0.05 µg/mL	91 ± 2.5
[7], 0.1 µg/mL	102 ± 2.8
[7], 0.2 µg/mL	124 ± 1.9
[7], 0.4 µg/mL	3.43 ± 2.5
[7], 0.8 µg/mL	-1.66 ± 2.1
[7], 1.6 µg/mL	-4.67 ± 0.18
[7], 3.2 µg/mL	-5 ± 1.5
[7], 6.4 µg/mL	-6.38 ± 0.35
[8], 0.003125 µg/mL	93 ± 7.5
[8], 0.00625 µg/mL	104 ± 3.9
[8], 0.0125 µg/mL	96.4 ± 3.4
[8], 0.025 µg/mL	105 ± 3.5
[8], 0.05 µg/mL	88.9 ± 15
[8], 0.1 µg/mL	102.4 ± 0.74
[8], 0.2 µg/mL	121 ± 2.8
[8], 0.4 µg/mL	4.55 ± 3.3
[8], 0.8 µg/mL	-3.35 ± 0.52
[8], 1.6 µg/mL	-4.65 ± 0.39
[8], 3.2 µg/mL	-5.75 ± 0.36
[8], 6.4 µg/mL	-6.76 ± 0.76
[9], 0.003125 µg/mL	90.179 ± 0.041
[9], 0.00625 µg/mL	100 ± 5.3
[9], 0.0125 µg/mL	98.2 ± 2.3
[9], 0.025 µg/mL	97.7 ± 5.5
[9], 0.05 µg/mL	92.5 ± 11
[9], 0.1 µg/mL	99.5 ± 5.5
[9], 0.2 µg/mL	118 ± 7
[9], 0.4 µg/mL	11.1 ± 16
[9], 0.8 µg/mL	-5.74 ± 1.1
[9], 1.6 µg/mL	-6.93 ± 0.81
[9], 3.2 µg/mL	-7.71 ± 1.1
[9], 6.4 µg/mL	-8.73 ± 1.1
[10], 0.003125 µg/mL	101 ± 3.4
[10], 0.00625 µg/mL	100 ± 2.6
[10], 0.0125 µg/mL	94.2 ± 5.6
[10], 0.025 µg/mL	100 ± 4.2
[10], 0.05 µg/mL	93.9 ± 5
[10], 0.1 µg/mL	99.1 ± 16
[10], 0.2 µg/mL	87.1 ± 31
[10], 0.4 µg/mL	24.5 ± 29
[10], 0.8 µg/mL	9.73 ± 19
[10], 1.6 µg/mL	-3.42 ± 3.3
[10], 3.2 µg/mL	-6.24 ± 0.78
[10], 6.4 µg/mL	-7.2 ± 0.39
[11], 0.003125 µg/mL	92.9 ± 2.6
[11], 0.00625 µg/mL	94.5 ± 2.8
[11], 0.0125 µg/mL	95.7 ± 2
[11], 0.025 µg/mL	90 ± 5
[11], 0.05 µg/mL	91.4 ± 2.4
[11], 0.1 µg/mL	96.7 ± 10
[11], 0.2 µg/mL	74.7 ± 38
[11], 0.4 µg/mL	1.21 ± 10
[11], 0.8 µg/mL	-6.19 ± 4.5
[11], 1.6 µg/mL	-7.05 ± 5.3
[11], 3.2 µg/mL	-7.85 ± 5.5
[11], 6.4 µg/mL	-9.08 ± 5.8
[12], 0.003125 µg/mL	99.5 ± 11
[12], 0.00625 µg/mL	105 ± 1.2
[12], 0.0125 µg/mL	101 ± 5.7
[12], 0.025 µg/mL	106 ± 6.3
[12], 0.05 µg/mL	97.4 ± 9.9
[12], 0.1 µg/mL	99.4 ± 13
[12], 0.2 µg/mL	84.9 ± 40
[12], 0.4 µg/mL	37.3 ± 49
[12], 0.8 µg/mL	0.407 ± 3.9
[12], 1.6 µg/mL	-3.99 ± 0.79
[12], 3.2 µg/mL	-5.84 ± 0.71
[12], 6.4 µg/mL	-6.46 ± 1.2

± gives the standard deviation of the averaged measurements. M. abscessus ATCC 19977 and its deletion, point and complemented mutants after 5 days of drug at 37 °C plus 24 h of resazurin. Growth in % of untreated wells at the dose given (lower = more inhibition); checkerboards give % inhibition (higher = more inhibition); IC50 from the fitted curve (lower = more potent). No active / inactive call. IC50 values come from the same 384-well curves. Growth is not capped and can exceed 100%. The direction of the checkerboard scale is read from the raw signals. Capreomycin is a mixture.
